Assay [1] concerns the target T1, human GITR (human, UniProt Q9Y5U5 26-241).
T1 sequence: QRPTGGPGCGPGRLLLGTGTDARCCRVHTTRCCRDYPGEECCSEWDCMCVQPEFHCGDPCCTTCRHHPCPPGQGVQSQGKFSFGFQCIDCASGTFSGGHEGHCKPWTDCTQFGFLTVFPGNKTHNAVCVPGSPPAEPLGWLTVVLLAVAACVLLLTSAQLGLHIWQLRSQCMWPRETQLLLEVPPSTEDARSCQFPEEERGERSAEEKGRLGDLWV
Put plainly: cell-based or functional assay.

Assay [2] concerns the target T1, human GITR. Put plainly: flow cytometry on HEK293_NFkB-Nluc2P human GITR cells. On the technique in general: Flow cytometry measures light scatter and fluorescence of single cells or particles in a stream.
For assay [3], the target named is T1, human GITR. The experiment in a line: cell-based or functional assay. The source holds these as a separate data set.

Read-outs that look alike come from different tables or passages of the source.

Data on 1 molecule can be found in patent US20220411521A1 (Ablynx, published 2022).

B1: A-0231-00_TP008 (other)
heavy: EVQLVESGGGLVQPGGSLRLSCAASETIFSIDSMAWYRQAPGKQRELVAAITGGGSPNYADSVKGRFTISSDVAKRTVYLQMNSLKPEDTAVYYCNAEGQAGWGTALMDYWGKGTLVTVSS[… human IgG1 constant region …]
light: EVQLVESGGGLVQPGGSLRLSCAASETIFSIDSMAWYRQAPGKQRELVAAITGGGSPNYADSVKGRFTISSDVAKRTVYLQMNSLKPEDTAVYYCNAEGQAGWGTALMDYWGKGTLVTVSSRTVAAPSVFIFPPSDEQLKSGTASVVCLLNNFYPREAKVQWKVDNALQSGNSQESVTEQDSKDSTYSLSSTLTLSKADYEKHKVYACEVTHQGLSSPVTKSFNRGEC
notes: Two heavy chains (5A03 fused to human IgG1 CH1-CH3) and two light chains (5A03 fused to human kappa CL); Both entries as printed start with a secretion leader; also called Nanobody-human IgG1 chimera A-0231-00_TP008; anti-GITR NB-human IgG1
Consider B1, for which the “EC50, HEK293 human GITR NF-kB luc reporter (single cell clone)” value in assay [1] is 0.0189 nM; in assay [3], 0.0152 nM. In addition, the EC50 in assay [2] is 0.0675 nM.

Broadly, the EC50 is the concentration giving half of the maximal effect. High values mean a need for much substance, low ones an effect from little substance.
